# From the supplement of paper PMC4723716
# ± gives the uncertainty stated by the source. Over roughly 9,900 compounds, “viability index relative to DMSO control” has its median near 1; the lowest 2% begin near 0.85. The list shows a part of the results.
# System: Plasmodium falciparum NF54 stage V gametocytes
# Experiment: viability index relative to DMSO control (fraction); higher = less gametocyte killing
# Settings: 2.5 µM, library set: Broad Institute DOS, incubation time: 72 h
# Summary of the method: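 Gametocytes (P. falciparum NF54, stage V) were treated with compound at 2.5 µM for 72 hr at 37°C in low oxygen, in serum-free medium at 0.75% gametocytemia and 1.25% hematocrit. Counts of 20–70 µm2 red particles, taken from one field per well after MitoTracker Red CMXRos with saponin, were divided by the plate mean of solvent-only wells. This ratio is the viability index.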
row,Compound,viability index
1,COc1ccc2c3c([C@H](CO)N(Cc4ccc(Cl)cc4)C[C@]33CN(C3)C(=O)NC(C)C)n(C)c2c1,1.03 ± 0.11
2,Cc1noc(C)c1S(=O)(=O)N1[C@@H]2CNC[C@H]1[C@H]2c1ccc(-c2cccc(F)c2)cc1,1.09 ± 0.1
3,O=C(Nc1ccccc1F)N[C@@H]1CC[C@@H](CCNC(=O)C2CC2)O[C@@H]1CO,1.17 ± 0.11
4,COc1ccc2c3c([C@H](CO)N(Cc4ccccc4)C[C@]33CN(C3)S(=O)(=O)c3ccc(C)cc3)n(C)c2c1,0.921 ± 0.08
5,CCC(=O)N1[C@H](CO)[C@@H](c2ccccc2)[C@H]1CN(C)C(=O)CN1CCOCC1,1.05 ± 0.053
6,CCc1cnc(N2[C@H](CO)[C@H](c3ccccc3-c3ccccc3C)[C@@H]2C#N)s1,1.12 ± 0.1
7,O=C1CCCCn2cc(nn2)COC[C@@H](Cc2ccccc2)N1,1.13 ± 0.074
8,COc1cccc(CNC(=O)[C@H]2[C@H](CO)[C@H]3Cn4c(ccc(C5=CCCC5)c4=O)[C@@H]2N3)c1,1.0533 ± 0.00074
9,CCS(=O)(=O)N1CC(=O)N2[C@H](CO)[C@@H](c3ccc(-c4cccc(F)c4)cc3)[C@@H]2C1,1.076 ± 0.0055
10,N#C[C@H]1[C@H](c2ccccc2-c2cccc(F)c2)[C@@H](CO)N1C(=O)NC1CCCCC1,1.03 ± 0.19
11,C[C@@H]1CN([C@H](C)CO)C(=O)c2cc(-c3ccncc3)cnc2O[C@H]1CN(C)C(=O)CN1CCOCC1,1.03 ± 0.054
12,C[C@H](CO)N1C[C@H](C)[C@H](CN(C)CC2CCCCC2)Oc2ccc(NS(=O)(=O)c3cccs3)cc2CC1=O,1.09 ± 0.025
13,O=C(C[C@H]1C[C@H]2c3cc(NC(=O)NC4CCCC4)ccc3O[C@H]2[C@H](CO)O1)NCc1ccccc1F,1.09 ± 0.089
14,O=C1CNC[C@H]2[C@@H](c3ccc(C#CC4CCCCC4)cc3)[C@H](CO)N12,1.09 ± 0.058
15,CC(C)[C@@H]1C/C=C/C[C@H](C)Oc2ccccc2C(=O)N(C)[C@@H](Cc2ccccc2)C(=O)N1.CC(C)[C@@H]1C/C=C\C[C@H](C)Oc2ccccc2C(=O)N(C)[C@@H](Cc2ccccc2)C(=O)N1,1.01 ± 0.047
16,COc1ccc(CNC(=O)C[C@H]2C[C@H]3c4cc(N(C)C)ccc4O[C@H]3[C@H](CO)O2)cc1,1.09 ± 0.077
17,CC(C)[C@@H]1COCc2cn(nn2)CCCCC(=O)N1,1.068 ± 0.0061
18,CCS(=O)(=O)N1C[C@@]2(C1)CN(Cc1cc(F)ccc1F)[C@H](CO)c1c2c2ccc(OC)cc2n1C,0.973 ± 0.029
19,C[C@@H]1CN([C@H](C)CO)C(=O)c2cccc(NC(=O)Nc3ccc(F)cc3)c2O[C@H]1CN(C)S(=O)(=O)c1ccc(Cl)cc1,0.92 ± 0.22
20,C[C@H](CO)N1C[C@H](C)[C@@H](CN(C)S(=O)(=O)c2ccc(Cl)cc2)OCCCC[C@H](C)Oc2ccc(NC(=O)Nc3ccc(C(F)(F)F)cc3)cc2C1=O,1.1 ± 0.11
21,Cc1ccccc1S(=O)(=O)N1[C@H](CO)[C@@H](c2ccc(C#CC3CC3)cc2)[C@@H]1C#N,0.916 ± 0.12
22,COCC(=O)N1C[C@]2(CN(C2)S(C)(=O)=O)c2c([C@H]1CO)n(C)c1cc(OC)ccc21,1.01 ± 0.093
23,CNC[C@@H]1OCc2cnnn2CCCC(=O)N([C@@H](C)CO)C[C@@H]1C,1.08 ± 0.07

row,Compound,viability index
1,O=C(C1CCC1)N1CC(=O)N2[C@H](CO)[C@@H](c3ccc(Br)cc3)[C@H]2C1,1.02 ± 0.017
2,COCC(=O)Nc1ccc2c(c1)C(=O)N(C)C[C@@H](OC)[C@@H](C)CN(C(=O)c1ccncc1)[C@H](C)CO2,1.0814 ± 0.00057
3,CCCNC(=O)Nc1ccc2c(c1)C(=O)N(C)C[C@@H](OC)[C@@H](C)CN(C)[C@@H](C)CO2,1.064 ± 0.01
4,C[C@H](CO)N1C[C@H](C)[C@@H](CN(C)Cc2ccc(Oc3ccccc3)cc2)Oc2ccc(N(C)C)cc2C1=O,0.959 ± 0.042
5,COc1cccc(NC(=O)N[C@H]2C=C[C@H](CC(=O)NCc3ccncn3)O[C@@H]2CO)c1,1.06 ± 0.045
6,Cc1ccc(S(=O)(=O)N[C@@H]2C=C[C@@H](CC(=O)NCc3ccc(Cl)c(Cl)c3)O[C@@H]2CO)cc1,0.916 ± 0.13
7,COCC#Cc1ccc([C@@H]2[C@H]3CN(C(=O)CN4CCOCC4)CC(=O)N3[C@H]2CO)cc1,1.131 ± 0.0059
8,CN1C(=O)c2cc(NC(=O)c3cnccn3)ccc2OC[C@H]2O[C@@H](CC(=O)N[C@H]3CCN(Cc4ccccc4)C3)CC[C@H]21,0.9901 ± 0.0041
9,O=C(N[C@H]1CC[C@@H](CC(=O)N2CCOCC2)O[C@H]1CO)c1cccc(F)c1,0.979 ± 0.061
10,C[C@H](CO)N1C[C@H](C)[C@H](CN(C)C(=O)Nc2ccccc2)OCCCC[C@H](C)Oc2ccc(NC(=O)Nc3ccccc3)cc2C1=O,1.03 ± 0.019
11,CCC(=O)N1CC2(C1)[C@H](c1ccc(-c3ccccc3C)cc1)[C@H](CO)N2C(=O)CC,1.088 ± 0.0012
12,COc1ccc(-c2ccc([C@H]3[C@H](CO)N4C(=O)CN(C(=O)C5CC5)C[C@@H]34)cc2)cc1,0.9889 ± 0.0082
13,CC(C)C[C@H]1COCc2cn(nn2)CC[C@@H](Cc2ccc(Cl)cc2)C(=O)N1,0.955 ± 0.036
14,C[C@@H]1CN([C@H](C)CO)C(=O)c2cc(C#Cc3ccccc3)cnc2O[C@@H]1CN(C)C(=O)c1ccccc1,0.966 ± 0.057
15,O=C(c1ccccn1)N1CC2(C1)[C@H](c1ccccc1)[C@H](CO)N2Cc1ccc(F)cc1,1.12 ± 0.073
16,C[C@@H]1CCCCO[C@@H](CN(C)C(=O)Cc2ccccc2)[C@H](C)CN([C@@H](C)CO)C(=O)c2cc(NS(C)(=O)=O)ccc2O1,1.07 ± 0.024
17,COCC#Cc1ccc([C@H]2[C@@H](CO)N3C(=O)CN(C(=O)Nc4ccccc4F)C[C@@H]23)cc1,1.02 ± 0.044
18,CCS(=O)(=O)N1C[C@@]2(C1)CN(Cc1ccc3OCOc3c1)[C@H](CO)c1[nH]c3cc(OC)ccc3c21,1 ± 0.017
19,N#C[C@H]1N[C@@H](CO)[C@H]1c1ccc(C2=CCCC2)cc1,1.17 ± 0.03
20,CNC[C@@H]1OCCCC[C@H](C)Oc2ccc(NS(=O)(=O)c3ccc(F)cc3)cc2C(=O)N([C@H](C)CO)C[C@@H]1C,1.02 ± 0.15
21,COCC(=O)N1C[C@@]2(C1)CN([C@H](CO)c1c2c2ccc(OC)cc2n1C)S(C)(=O)=O,0.955 ± 0.12
22,COc1ccc2c3c([nH]c2c1)[C@H](CO)N(Cc1ccc(Cl)cc1)C[C@]31CN(C1)S(C)(=O)=O,0.931 ± 0.066
23,O=C(C1CC1)N1CC[C@@H]2[C@H](CO)Nc3ccc(Br)cc3[C@@H]21,1.1 ± 0.048
